# The list shows a part of the results.
# What was measured:
# Test in all cases: glycan array binding signal (z-score within array); higher = stronger binding
# Conditions in all cases: glycan notation: IUPAC condensed, linker removed
# [1] = biological target: Gal(b1-3)GlcNAc(b1-6)[Gal(b1-3)]GalNAc
# Outline: (§1)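 The binding signal is a Z-score computed within each array. Data were drawn from 3228 arrays in the Consortium for Functional Glycomics database, restricted to those with a known protein sequence. Scores were averaged over arrays of the same protein sequence at different concentrations or buffers, and over linkers, and negative values can be taken as non-binding.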
# [2] = biological target: Gal(b1-3)GlcNAc6S
# Outline: as §1
# [3] = biological target: Gal(b1-3)[Fuc(a1-4)]GlcNAc
# Outline: as §1
# [4] = biological target: Gal(b1-3)[Fuc(a1-4)]GlcNAc(b1-2)Man
# Outline: as §1
# [5] = biological target: Gal(b1-3)[Fuc(a1-4)]GlcNAc(b1-2)Man(a1-3)[Gal(b1-3)[Fuc(a1-4)]GlcNAc(b1-2)Man(a1-6)]Man(b1-4)GlcNAc(b1-4)[Fuc(a1-6)]GlcNAc
# Outline: as §1
# [6] = biological target: Gal(b1-3)[Fuc(a1-4)]GlcNAc(b1-3)Gal(b1-3)[Fuc(a1-4)]GlcNAc
# Outline: as §1
# [7] = biological target: Gal(b1-3)[Fuc(a1-4)]GlcNAc(b1-3)Gal(b1-4)[Fuc(a1-3)]GlcNAc
# Outline: as §1
# [8] = biological target: Gal(b1-3)[Fuc(a1-4)]GlcNAc(b1-6)GalNAc
# Outline: as §1
# [9] = biological target: Gal(b1-3)[GlcNAc(b1-6)]GalNAc
# Outline: as §1
# [10] = biological target: Gal(b1-3)[Neu5Ac(a2-6)]GalNAc
# Outline: as §1
# [11] = biological target: Gal(b1-3)[Neu5Ac(a2-6)]GlcNAc(b1-4)Gal(b1-4)Glc
# Outline: as §1
# [12] = biological target: Gal(b1-3)[Neu5Ac(b2-6)]GalNAc
# Outline: as §1
# [13] = biological target: Gal(b1-4)Gal
# Outline: as §1
# [14] = biological target: Gal(b1-4)GalNAc(a1-3)[Fuc(a1-2)]Gal(b1-4)GlcNAc
# Outline: as §1
# [15] = biological target: Gal(b1-4)GalNAc(b1-3)[Fuc(a1-2)]Gal(b1-4)GlcNAc
# Outline: as §1
# [16] = biological target: Gal(b1-4)Glc
# Outline: as §1
# [17] = biological target: Gal(b1-4)Glc6S
# Outline: as §1
# [18] = biological target: Gal(b1-4)GlcNAc
# Outline: as §1
# [19] = biological target: Gal(b1-4)GlcNAc(a1-6)Gal(b1-4)GlcNAc
# Outline: as §1
# [20] = biological target: Gal(b1-4)GlcNAc(b1-2)Man
# Outline: as §1
# [21] = biological target: Gal(b1-4)GlcNAc(b1-2)Man(a1-3)Man(b1-4)GlcNAc(b1-4)GlcNAc
# Outline: as §1
# [22] = biological target: Gal(b1-4)GlcNAc(b1-2)Man(a1-3)[Gal(b1-4)GlcNAc(b1-2)Man(a1-6)]Man(b1-4)GlcNAc(b1-4)GlcNAc
# Outline: as §1
# [23] = biological target: Gal(b1-4)GlcNAc(b1-2)Man(a1-3)[Gal(b1-4)GlcNAc(b1-2)Man(a1-6)]Man(b1-4)GlcNAc(b1-4)[Fuc(a1-6)]GlcNAc
# Outline: as §1
# [24] = biological target: Gal(b1-4)GlcNAc(b1-2)Man(a1-3)[Gal(b1-4)GlcNAc(b1-2)Man(a1-6)][Gal(b1-4)GlcNAc(b1-4)]Man(b1-4)GlcNAc(b1-4)[Fuc(a1-6)]GlcNAc
# Outline: as §1
# [25] = biological target: Gal(b1-4)GlcNAc(b1-2)Man(a1-3)[Gal(b1-4)GlcNAc(b1-2)Man(a1-6)][GlcNAc(b1-4)]Man(b1-4)GlcNAc(b1-4)[Fuc(a1-6)]GlcNAc
# Outline: as §1
# [26] = biological target: Gal(b1-4)GlcNAc(b1-2)Man(a1-3)[GlcNAc(b1-2)Man(a1-6)]Man(b1-4)GlcNAc(b1-4)GlcNAc
# Outline: as §1
# [27] = biological target: Gal(b1-4)GlcNAc(b1-2)Man(a1-3)[GlcNAc(b1-4)][Gal(b1-4)GlcNAc(b1-2)Man(a1-6)]Man(b1-4)GlcNAc(b1-4)GlcNAc
# Outline: as §1
# [28] = biological target: Gal(b1-4)GlcNAc(b1-2)Man(a1-3)[Man(a1-6)]Man(b1-4)GlcNAc(b1-4)GlcNAc
# Outline: as §1
# [29] = biological target: Gal(b1-4)GlcNAc(b1-2)Man(a1-6)Man(b1-4)GlcNAc(b1-4)GlcNAc
# Outline: as §1
# [30] = biological target: Gal(b1-4)GlcNAc(b1-2)Man(a1-6)[GlcNAc(b1-2)Man(a1-3)]Man(b1-4)GlcNAc(b1-4)GlcNAc
# Outline: as §1
# [31] = biological target: Gal(b1-4)GlcNAc(b1-2)Man(a1-6)[Man(a1-3)]Man(b1-4)GlcNAc(b1-4)GlcNAc
# Outline: as §1
# [32] = biological target: Gal(b1-4)GlcNAc(b1-2)[Gal(b1-4)GlcNAc(b1-4)]Man(a1-3)[Gal(b1-4)GlcNAc(b1-2)Man(a1-6)]Man(b1-4)GlcNAc(b1-4)GlcNAc
# Outline: as §1
# [33] = biological target: Gal(b1-4)GlcNAc(b1-2)[Gal(b1-4)GlcNAc(b1-4)]Man(a1-3)[Gal(b1-4)GlcNAc(b1-2)[Gal(b1-4)GlcNAc(b1-6)]Man(a1-6)]Man(b1-4)GlcNAc(b1-4)GlcNAc
# Outline: as §1
# [34] = biological target: Gal(b1-4)GlcNAc(b1-2)[Gal(b1-4)GlcNAc(b1-4)]Man(a1-3)[GlcNAc(b1-4)][Gal(b1-4)GlcNAc(b1-2)Man(a1-6)]Man(b1-4)GlcNAc(b1-4)GlcNAc
# Outline: as §1
# [35] = biological target: Gal(b1-4)GlcNAc(b1-2)[Gal(b1-4)GlcNAc(b1-4)]Man(a1-3)[GlcNAc(b1-4)][Gal(b1-4)GlcNAc(b1-2)[Gal(b1-4)GlcNAc(b1-6)]Man(a1-6)]Man(b1-4)GlcNAc(b1-4)GlcNAc
# Outline: as §1
# [36] = biological target: Gal(b1-4)GlcNAc(b1-2)[Gal(b1-4)GlcNAc(b1-6)]Man(a1-6)[Gal(b1-4)GlcNAc(b1-2)Man(a1-3)]Man(b1-4)GlcNAc(b1-4)GlcNAc
# Outline: as §1
# [37] = biological target: Gal(b1-4)GlcNAc(b1-2)[Gal(b1-4)GlcNAc(b1-6)]Man(a1-6)[Gal(b1-4)GlcNAc(b1-2)Man(a1-3)]Man(b1-4)GlcNAc(b1-4)[Fuc(a1-6)]GlcNAc
# Outline: as §1
binder,measurement,setting,value
ClecSol-Fc (Cryptosporidium parvum) (protein) CPEGWISNGEKTRCFKLVTFDRPRTFSHGFKACNDLGGTEVETRRRNGSKETNEYPVTLASVYKLSDEEAIRRTLVEQGDIHKTANGCFVGLRKYAFFRYPPGWYWIDSGSPVSVRDSEINWTSSYNASWLLRFKFPFEKCGFFDIGGLGRRPCWLIDSELSCAVCGTVAYDSGGLNPNKYSELIKQTDEIISKEPKLDLPGYNNLNCTDAWENNLSVGLCQNVSNILDSAWSSYQSSLNFPSINFNWKEDSTNEGGDQVYHNSYLDLPRYKQKKTFYWDQDPGTIPALSDEMKLIGLSAQPTYHPLDRSSSGSFESDSTESGRANEERNDTLEEMIYKQSSDSIEDILVPVTKPIFSDYSSIGRNSGVEEVYSSNVSTISSKGVVFPNTTTSSDNDFTKNNPANSSKHTSTSTTTNTTTTTTRTTTTTTTTTTTTTTTTTTTTETTTTKKSTTATKNTTTT,glycan array binding signal (z-score),[1],-0.131
same,glycan array binding signal (z-score),[2],-0.093
same,glycan array binding signal (z-score),[3],-0.042
same,glycan array binding signal (z-score),[4],-0.208
same,glycan array binding signal (z-score),[5],-0.172
same,glycan array binding signal (z-score),[6],-0.059
same,glycan array binding signal (z-score),[7],-0.152
same,glycan array binding signal (z-score),[8],0.049
same,glycan array binding signal (z-score),[9],-0.093
same,glycan array binding signal (z-score),[10],-0.235
same,glycan array binding signal (z-score),[11],-0.143
same,glycan array binding signal (z-score),[12],-0.149
same,glycan array binding signal (z-score),[13],-0.099
same,glycan array binding signal (z-score),[14],-0.218
same,glycan array binding signal (z-score),[15],-0.162
same,glycan array binding signal (z-score),[16],-0.122
same,glycan array binding signal (z-score),[17],0.045
same,glycan array binding signal (z-score),[18],-0.04
same,glycan array binding signal (z-score),[19],0.157
same,glycan array binding signal (z-score),[20],-0.066
same,glycan array binding signal (z-score),[21],-0.14
same,glycan array binding signal (z-score),[22],-0.22
same,glycan array binding signal (z-score),[23],0.081
same,glycan array binding signal (z-score),[24],-0.127
same,glycan array binding signal (z-score),[25],-0.22
same,glycan array binding signal (z-score),[26],-0.232
same,glycan array binding signal (z-score),[27],-0.166
same,glycan array binding signal (z-score),[28],0.042
same,glycan array binding signal (z-score),[29],-0.159
same,glycan array binding signal (z-score),[30],-0.184
same,glycan array binding signal (z-score),[31],-0.206
same,glycan array binding signal (z-score),[32],-0.221
same,glycan array binding signal (z-score),[33],-0.056
same,glycan array binding signal (z-score),[34],-0.119
same,glycan array binding signal (z-score),[35],-0.155
same,glycan array binding signal (z-score),[36],-0.221
same,glycan array binding signal (z-score),[37],-0.266

# From the supplement of paper PMC8728848
